Assay results from the antibiotic and cytotoxicity screens of Wong et al. (2023).
The other results are listed elsewhere or left out.

What was measured:
HSkMC = human skeletal muscle cells; assay: cytotoxicity call (relative viability < 0.9); details: 10 µM
HepG2 = assay: cytotoxicity call (relative viability < 0.9); details: 10 µM
S. aureus RN4220 = assay: growth inhibition call (relative growth <= 0.2); details: 50 µM

C[C@H](CO)N1C[C@H](C)[C@@H](CN(C)S(=O)(=O)c2ccccc2)OCCCC[C@H](C)Oc2ccc(NC(=O)Nc3ccc4c(c3)OCO4)cc2C1=O
cytotoxicity call (HSkMC): inactive | cytotoxicity call (HepG2): inactive | growth inhibition call (S. aureus RN4220): inactive

C[C@H](CO)N1C[C@H](C)[C@@H](CN(C)S(=O)(=O)c2cn(C)cn2)Oc2cc(C#Cc3ccccc3)ccc2S1(=O)=O
cytotoxicity call (HSkMC): inactive | cytotoxicity call (HepG2): inactive | growth inhibition call (S. aureus RN4220): inactive

CCCN1CCCc2cc(CCN)ccc21
cytotoxicity call (HSkMC): inactive | cytotoxicity call (HepG2): inactive | growth inhibition call (S. aureus RN4220): inactive

COc1ccc(CN(C)C[C@@H]2Oc3ccc(NS(C)(=O)=O)cc3CC(=O)N([C@@H](C)CO)C[C@H]2C)cc1
cytotoxicity call (HSkMC): inactive | cytotoxicity call (HepG2): inactive | growth inhibition call (S. aureus RN4220): inactive

NCC[C@@H]1CC[C@H](NC(=O)NC2CCCCC2)[C@H](CO)O1
cytotoxicity call (HSkMC): inactive | cytotoxicity call (HepG2): inactive | growth inhibition call (S. aureus RN4220): inactive

COc1ccccc1CCCCN
cytotoxicity call (HSkMC): inactive | cytotoxicity call (HepG2): inactive | growth inhibition call (S. aureus RN4220): inactive

COc1ccccc1CNC(=O)C[C@H]1C[C@@H]2c3cc(NC(=O)Nc4ccc(C(F)(F)F)cc4)ccc3O[C@@H]2[C@H](CO)O1
cytotoxicity call (HSkMC): inactive | cytotoxicity call (HepG2): inactive | growth inhibition call (S. aureus RN4220): inactive

COc1ccc(S(=O)(=O)Nc2ccc3c(c2)C(=O)N([C@@H](C)CO)C[C@@H](C)[C@H](CN(C)CC2CC2)O3)cc1
cytotoxicity call (HSkMC): inactive | cytotoxicity call (HepG2): inactive | growth inhibition call (S. aureus RN4220): inactive

COC(=O)C=Cc1cc(OC)c(OC)c(OC)c1
cytotoxicity call (HSkMC): inactive | cytotoxicity call (HepG2): inactive | growth inhibition call (S. aureus RN4220): inactive

COc1ccc(C#Cc2ccc3c(c2)O[C@@H](CN(C)C(C)=O)[C@H](C)CN([C@@H](C)CO)S3(=O)=O)cc1
cytotoxicity call (HSkMC): inactive | cytotoxicity call (HepG2): inactive | growth inhibition call (S. aureus RN4220): inactive

C[C@@H]1CN([C@H](C)CO)C(=O)c2cc(NC(=O)Nc3ccc(F)cc3)ccc2O[C@@H](C)CCCCO[C@@H]1CN(C)Cc1ccccc1
cytotoxicity call (HSkMC): inactive | cytotoxicity call (HepG2): inactive | growth inhibition call (S. aureus RN4220): inactive

CO[C@H](C(=O)N(C)C[C@@H]1OCc2ccccc2-c2c(n(C)c3ccccc23)C(=O)N([C@H](C)CO)C[C@@H]1C)c1ccccc1
cytotoxicity call (HSkMC): inactive | cytotoxicity call (HepG2): inactive | growth inhibition call (S. aureus RN4220): inactive

O=C(C[C@H]1C=C[C@H](NC(=O)CN2CCOCC2)[C@H](CO)O1)NCCc1ccccc1
cytotoxicity call (HSkMC): inactive | cytotoxicity call (HepG2): inactive | growth inhibition call (S. aureus RN4220): inactive

O=C(C[C@H]1C[C@H]2c3cc(NC(=O)C4CCOCC4)ccc3O[C@H]2[C@H](CO)O1)NCCN1CCCCC1
cytotoxicity call (HSkMC): inactive | cytotoxicity call (HepG2): inactive | growth inhibition call (S. aureus RN4220): inactive

CC1(C)S[C@H]2[C@@H](NC(=O)[C@@H](NC(=O)N3CCN(S(C)(=O)=O)C3=O)c3ccccc3)C(=O)N2[C@@H]1C(=O)O
cytotoxicity call (HSkMC): inactive | cytotoxicity call (HepG2): inactive | growth inhibition call (S. aureus RN4220): active

C[C@@H]1CN([C@@H](C)CO)C(=O)c2cc(NC(=O)Cn3cnnn3)ccc2O[C@H]1CN(C)Cc1ccc(Cl)c(Cl)c1
cytotoxicity call (HSkMC): inactive | cytotoxicity call (HepG2): inactive | growth inhibition call (S. aureus RN4220): inactive

COc1ccccc1C#Cc1ccc2c(c1)O[C@H](CN(C)Cc1cccnc1)[C@H](C)CN([C@@H](C)CO)S2(=O)=O
cytotoxicity call (HSkMC): inactive | cytotoxicity call (HepG2): inactive | growth inhibition call (S. aureus RN4220): inactive

C[C@H](O)C#Cc1cnc2c(c1)C(=O)N([C@@H](C)CO)C[C@H](C)[C@@H](CN(C)C(=O)CN1CCOCC1)O2
cytotoxicity call (HSkMC): inactive | cytotoxicity call (HepG2): inactive | growth inhibition call (S. aureus RN4220): inactive

CC(C)NC(=O)N[C@@H]1C=C[C@H](CC(=O)O)O[C@@H]1CO
cytotoxicity call (HSkMC): inactive | cytotoxicity call (HepG2): inactive | growth inhibition call (S. aureus RN4220): inactive

C[C@H](CO)N1C[C@H](C)[C@@H](CN(C)C(=O)Nc2ccc3c(c2)OCO3)Oc2ccc(NS(C)(=O)=O)cc2CC1=O
cytotoxicity call (HSkMC): inactive | cytotoxicity call (HepG2): inactive | growth inhibition call (S. aureus RN4220): inactive

Cc1noc(C)c1S(=O)(=O)Nc1ccc2c(c1)C(=O)N([C@H](C)CO)C[C@H](C)[C@H](CN(C)Cc1ccc(-c3ccccc3)cc1)O2
cytotoxicity call (HSkMC): inactive | cytotoxicity call (HepG2): inactive | growth inhibition call (S. aureus RN4220): inactive

Cc1ccc(-c2ccc3c(c2)O[C@@H](CN(C)Cc2cncnc2)[C@@H](C)CN([C@H](C)CO)S3(=O)=O)cc1
cytotoxicity call (HSkMC): inactive | cytotoxicity call (HepG2): inactive | growth inhibition call (S. aureus RN4220): inactive

Cc1noc(C)c1S(=O)(=O)Nc1ccc2c(c1)C(=O)N([C@H](C)CO)C[C@H](C)[C@@H](CN(C)Cc1ccc(Cl)c(Cl)c1)OCCCC[C@H](C)O2
cytotoxicity call (HSkMC): inactive | cytotoxicity call (HepG2): inactive | growth inhibition call (S. aureus RN4220): inactive

C[C@H](CO)N1C[C@H](C)[C@H](CN(C)S(=O)(=O)c2ccc(C#N)cc2)Oc2ncc(-c3ccccc3)cc2C1=O
cytotoxicity call (HSkMC): inactive | cytotoxicity call (HepG2): inactive | growth inhibition call (S. aureus RN4220): inactive

COc1ccc(-c2cnc3c(c2)C(=O)N([C@H](C)CO)C[C@@H](C)[C@@H](CN(C)S(=O)(=O)c2ccc(OC)cc2)O3)cc1
cytotoxicity call (HSkMC): inactive | cytotoxicity call (HepG2): inactive | growth inhibition call (S. aureus RN4220): inactive

C[C@H](CO)N1C[C@H](C)[C@H](CN(C)C(=O)Nc2cccc3ccccc23)Oc2c(NC(=O)Nc3cccc4ccccc34)cccc2C1=O
cytotoxicity call (HSkMC): inactive | cytotoxicity call (HepG2): inactive | growth inhibition call (S. aureus RN4220): inactive

O=C(NCCCN1CCOCC1)[C@H]1[C@@H]2C=C[C@@]3(CN(Cc4cccs4)C(=O)[C@@H]13)O2
cytotoxicity call (HSkMC): inactive | cytotoxicity call (HepG2): inactive | growth inhibition call (S. aureus RN4220): inactive
